Test results from the supplement of paper PMC3334620.
Over roughly 33,000 sequences, “E-score (-0.5 to 0.5)” has its median near -0.013; the highest 2% begin near 0.3. Some of the results follow.

Target: T1, Msn1 (UniProt P22148)
T1 sequence: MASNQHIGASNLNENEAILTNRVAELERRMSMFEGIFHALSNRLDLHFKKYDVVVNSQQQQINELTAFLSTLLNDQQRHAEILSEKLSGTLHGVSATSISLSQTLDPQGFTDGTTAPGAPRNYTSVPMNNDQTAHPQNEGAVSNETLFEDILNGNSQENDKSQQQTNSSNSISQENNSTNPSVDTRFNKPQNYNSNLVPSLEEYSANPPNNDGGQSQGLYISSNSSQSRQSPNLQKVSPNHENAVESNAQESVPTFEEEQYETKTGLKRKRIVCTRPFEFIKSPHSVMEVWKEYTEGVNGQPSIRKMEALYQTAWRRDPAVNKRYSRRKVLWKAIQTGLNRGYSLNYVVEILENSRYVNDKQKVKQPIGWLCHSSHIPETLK
Test: PBM E-score (8-mer binding enrichment) (E-score (-0.5 to 0.5)); higher = stronger / more preferred TF binding; most listed sequences are background and not binding sites
Conditions: protein concentration: 200 nM; construct: GST-full length
Summary of the method: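 E-scores (a modified Wilcoxon-Mann-Whitney statistic) were assigned by the Universal PBM Analysis Suite to every ungapped eight-base word pooled with its reverse complement. The input came from universal all-10-mer Agilent arrays made double-stranded by primer extension and probed with GST-tagged yeast transcription factors at about 100-200 nM. Fluorescent anti-GST detected bound protein, and masliner normalised the scans.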

Row | Sequence | PBM E-score
1 | GCTTTCCC | 0.00071
2 | CTTGTACC | 0.286
3 | AAGGTTAC | -0.0549
4 | AAATGGCT | 0.0617
5 | ATTCAATG | 0.142
6 | GCCCGGCA | -0.169
7 | ATGACGCA | 0.224
8 | CTCAACGA | -0.0825
9 | ATGGGAGG | -0.115
10 | CAGAGTCC | 0.0634
11 | GAATCCTC | -0.289
12 | CCCAGCTC | -0.155
13 | CGTGGCAC | 0.0166
14 | ACGTACAA | 0.234
15 | CTTTAGGC | -0.131
16 | CCCTAGCC | -0.261
17 | AAGGTCGG | -0.139
18 | CCCACTAA | -0.085
19 | ACACATCT | -0.0161
20 | AATAAGTG | 0.117
21 | AGCTTCTA | -0.0188
22 | GGGCTGAC | -0.143
23 | AAGTAGAG | 0.0056
24 | ACGGGTAC | -0.067

Row | Sequence | PBM E-score
25 | CTATTACC | -0.165
26 | CCAGTGGC | -0.143
27 | TAAAATGA | 0.254
28 | CGTTCGAC | -0.127
29 | ACCGACTC | -0.0668
30 | AGAAATGA | 0.232
31 | TACCAGAA | 0.0567
32 | ATGACCCC | -0.211
33 | CAAGTTTC | 0.0198
34 | ACCATGCT | -0.124
35 | CTAGCTGC | -0.171
36 | GGCTGCTA | -0.246
37 | GACCAATA | 0.0382
38 | AGTGCCAT | -0.259
39 | CCGCCCTC | -0.231
40 | GCACTAGC | -0.0522
41 | CCGTCGGA | 0.0394
42 | AGAGCAGC | -0.112
43 | CAACTCGG | -0.00815
44 | TCCATTCA | 0.203
45 | GACTGACC | -0.204
46 | ACCCACAA | 0.126
47 | AGCGGTCG | -0.294
48 | ACCTCCCA | -0.259

Row | Sequence | PBM E-score
49 | AAACTTGC | -0.0981
50 | ATGTTCTA | -0.00786
51 | ATACGTCA | 0.036
52 | CACGTACC | -0.13
53 | ACCAGCCA | -0.14
54 | ATCGGCCA | -0.117
55 | GACGACGC | -0.0748
56 | CGTGTCAC | 0.287
57 | CCTTATTA | 0.091
58 | AAGGCATT | -0.229
59 | ACCCACTC | -0.261
60 | CCCCAGAG | -0.243
61 | AATTGACT | 0.151
62 | CAGGACTC | -0.0371
63 | AAAGGTGT | -0.0579
64 | GCCGAAGC | -0.0452
65 | AGGTGCCG | 0.0728
66 | CAGTAAGC | -0.147
67 | CGCTAAAC | -0.00264
68 | ATGCCCAG | -0.142
69 | CCGTAGAG | -0.0502
70 | GATAATAA | 0.0741
71 | CGGAAGTA | 0.00789
72 | CGGGCATC | -0.274

Row | Sequence | PBM E-score
73 | GATATTGC | 0.0823
74 | CCCCACCG | -0.242
75 | AGCCCCAG | -0.239
76 | AATGAGCA | 0.0647
77 | GAAAACCC | -0.0382
78 | CGTTCTTC | 0.0728
79 | GCGAAGAC | -0.0575
80 | GTTCACCA | -0.0926
81 | AATTCATC | -0.22
82 | ACAGGTTA | 0.0301
83 | CCCAACCA | 0.0322
84 | ACGGGAGA | -0.106
85 | ATTCAAAC | 0.125
86 | AGTAGTCG | 0.0474
87 | TGCGTAAA | -0.0602
88 | ATGTCCAA | 0.485
89 | TATGCTCA | 0.0929
90 | GCTGTGAA | -0.0215
91 | CCTTGCAA | -0.109
92 | AGTCCGAA | 0.108
93 | ATAGTTGG | -0.0884
94 | AATAAGAG | 0.0171
